The results in this text go back to article PMC10044308, “PRMT5 promotes ovarian cancer growth through enhancing Warburg effect by methylating ENO1” (MedComm, 2023).

Series [1] concerns the target T1, purified recombinant PRMT5 (human, UniProt O14744-1).
T1 construct: Human PRMT5, cDNA NM_006109.5 cloned into pETM3C; also called rPRMT5; rPRMT5 WT; source: bacteria, purified
As to the kind of experiment: co-IP; in vitro Co-IP: rPRMT5 and rGST-ENO1 purified from bacteria incubated with each other in vitro; which one was precipitated is not told. To be noted: both partners purified.

Series [2] deals with the molecule itself. The series can be described thus: cross-linking; purified recombinant GST-ENO1, with or without prior in vitro methylation by PRMT5, 0.0025% glutaraldehyde, room temperature, 5 min, 20 mM Tris-HCl pH 7.5, 100 mmol/L NaCl, 5% glycerol, 0.2 mmol/L EDTA, 2 mmol/L DTT; SDS-PAGE, ENO1 antibody; monomer to dimer.

As a reminder, the stoichiometry N is the number of molecules, sites or subunits per partner or assembly.

B1: purified recombinant GST-tagged ENO1 (enzyme, human)
chain: MSILKIHAREIFDSRGNPTVEVDLFTSKGLFRAAVPSGASTGIYEALELRDNDKTRYMGKGVSKAVEHINKTIAPALVSKKLNVTEQEKIDKL[skipping about 350 residues]
notes: Human ENO1, cDNA NM_001428.5 cloned into pETM3C; also called rGST-ENO1; rGST-ENO1 WT; source: bacteria, purified; not shown: GST, N-terminal, kept
For the molecule B1, the binding result in series [1] is on record as “binds”. For the same molecule, the “stoichiometry N” value in series [2] is 2.

B2: purified recombinant GST-tagged ENO1 methylated in vitro by PRMT5 (enzyme, human)
chain: MSILKIHAREIFDSRGNPTVEVDLFTSKGLFRAAVPSGASTGIYEALELRDNDKTRYMGKGVSKAVEHINKTIAPALVSKKLNVTEQEKIDKL[skipping about 350 residues]
modifications: symmetric dimethylarginine (SDMA) at R9
notes: Human ENO1, cDNA NM_001428.5 cloned into pETM3C; also called rGST-ENO1 WT incubated with rPRMT5; ENO1 methylated by recombinant PRMT5 or Flag-PRMT5; source: bacteria, purified, then in vitro methylation with rPRMT5 or Flag-PRMT5 and SAM; not shown: GST, N-terminal, kept
With B2, in series [2], the binding result is given as “binds”.
